# Among all 150,000 compounds or so, about 540 (0.36%) showed an effect of 50% or more. The list shows a part of the results.
# Test system: Plasmodium falciparum
# Assay: Primary screen in NF54 nanoGlo assay, in single point, at 2uM, 72h; a lower Z score goes with more inhibition
# Assay type: functional, Erythrocyte
# Details: timepoint 72 hour
SMILES,% Inhibition [%],Z score
Cc1cc(=O)n(CCN2CCOCC2)c2c1c(C)nn2-c1ccccc1,-23,2.71
COC[C@@H]1[C@H](NC(=O)Cc2ccc(O)c(Cl)c2)[C@H]2CCO[C@H]21,-9,0.88
O=C([C@@H]1CC(c2ccccc2)=NO1)N1CCCCC1,-9,1.36
CCCNC(=O)c1ccc(Br)cn1,-18,2.01
COCc1noc(CNc2cc(C(C)C)ncn2)n1,-13,1.15
COc1ccc(-c2cc3cc(OC)c(OC)cc3c(-c3ccccc3Cl)n2)cc1OC,-2,0.23
O=C(O)COc1ccc(CCNC(=O)Cc2ccn(-c3ccccc3)n2)cc1,-2,0.38
Cc1ccc(CNC(=O)c2scc(-c3cccc(F)c3)c2S(=O)(=O)N(C)c2ccccc2)cc1,-9,1.01
COc1ccc(OC)c(CCN2CC(=O)N(c3ccc(C(C)C)cc3)[C@@H]3CS(=O)(=O)C[C@@H]32)c1,-8,1.02
CCOC(=O)c1cc(S(=O)(=O)N2CCC[C@H]2C(=O)Nc2ccc(OC)c(Cl)c2)cn1C,0,0.07
COc1ccc(C[C@@]2(CCC(=O)N(C)Cc3csc(-c4cccs4)n3)CCC(=O)N2)c(F)c1,-3,0.38
CCc1nc(C)sc1CNC(=O)N(C)CCn1ccnc1C,-5,0.86
CC(C)OC1CCN(c2nc3cc(S(N)(=O)=O)ccc3[nH]2)CC1,-4,0.52
CCn1cncc1CNC(=O)c1csc(C)n1,-5,0.93
CCOC(=O)c1cc(C(F)(F)F)n(CC)n1,-5,0.78
CN1CCC2C(CCN2C(=O)Nc2ccc(Cl)c(C(F)(F)F)c2)C1 (stereo unspecified),42,-6.06
O=C(NCc1ccc2c(c1)OCO2)c1cc2n(n1)CCN(Cc1ccccc1F)C2=O,-1,0.07
CCCCn1nc(NC(=O)c2cc(-c3ccccc3)nc3ncnn23)cc1C,22,-2.5
Cn1ncc2c(N3CCC[C@H]3c3ccccn3)ncnc21,-4,0.7
COc1cccc(CN[C@@H]2CCC[C@@H](C(=O)N(C)Cc3cccnc3)CC(=O)N(C)C2)c1,0,-0.03
Cn1cccc1C(=O)Nc1ccc(-c2cccc(F)c2F)cn1,-16,2.93
CCc1csc(CN[C@@H](C)CC(C)(C)OC)n1,-4,0.68
Cc1ccc2oc(-c3ccc(NC(=O)c4ccc5c(c4)OCCO5)cc3O)nc2c1,-12,1.96
O=C(NCc1noc2c1CCCC2)N1CC2C3CCC(C3)C2C1 (stereo unspecified),-6,0.86
CC(C)(C)n1ncnc1CNC1(c2ccccc2Br)CC1,-5,0.57
CN(C)C(=O)c1cc(CN)cc(NC(=O)c2ccccn2)c1,-1,0.09
Fc1ccc([C@@H]2CCc3nnc(Cc4ccccc4)n3-c3cc(F)ccc32)cc1,-3,0.5

SMILES,% Inhibition [%],Z score
Cc1cc(F)c(C(=O)N[C@@H](C(C)C)C2CC2)c(F)c1,-1,0.19
O=C(N[C@H]1C[C@@](CO)(c2ccccc2)C1)c1nc[nH]c1C(F)(F)F,-6,1.15
Cc1ccccc1-c1cn[nH]c1[C@H]1CCCN(C(=O)CCCc2ccccc2)C1,-19,2.7
CNC(=O)[C@@H]1CCCN1C(=O)c1nnn(-c2cccc3ncccc23)c1C,-5,0.5
Cc1ccc(OCCc2nnc(NC(=O)[C@]3(C)CCCCO3)s2)cc1,-3,0.47
CN(CC(=O)NC1CC1)C(=O)c1ccc(-c2ccccc2F)o1,1,-0.27
O=C1CC[C@H](CCNCc2cc3c(cc2Cl)OCO3)N1CC1CC1,-13,1.81
C[C@H]1CN(Cc2c(C(=O)N3CCCCCCC3)nc3ccc(Cl)cn23)CCN1C,-2,0.42
Clc1ccc(-c2nc(C3CC3)ncc2-c2nnnn2-c2ccccc2)cc1Cl,1,-0.22
CC(=O)Nc1cccc(F)c1-c1nc[nH]n1,-5,0.98
CC1CN(C)CC(C)N1C(=O)CCC(F)(F)F (stereo unspecified),-3,0.43
O=C(Nc1ccc(Cl)c(Cl)c1)N1C2CCC1CC(n1cncn1)C2 (stereo unspecified),-1,0.16
CC(=O)Nc1cc(NC2CCN(c3nc(C)cs3)CC2)ccc1C,-8,0.91
Cc1ccccc1C(CN1CCOCC1)NCC1CCCN(C)C1 (stereo unspecified),-5,0.51
COC(=O)c1cc(NC(=O)NC[C@H](O)C(F)(F)F)n(C)n1,8,-1.05
O=C(NC(CC1CCCCC1)C(=O)O)C1CCC2CC2C1 (stereo unspecified),-23,2.49
COC1(C(F)(F)F)CN(C(=O)Nc2ccncc2N(C)C)C1,-10,1.99
O=C(NC[C@H]1CCCC[C@@H]1O)c1ccoc1C(F)(F)F,-5,0.81
Clc1ccc([C@@H]2CCCN2c2nnc(-c3ccccn3)s2)cc1,-9,1.44
CC(C)c1nccc(CN2CCC[C@H](c3nnc[nH]3)C2)n1,-11,1.47
Cc1ccccc1CN1CCN(c2cccc3ccccc23)C(=O)[C@@H]1C,-18,2.49
N#Cc1ccc(-c2nc(C(=O)NC[C@H]3CCCO3)no2)cc1,-20,1.8
O=C(CCc1cccnc1)N1CCc2ncnc(N3CCCC3)c2CC1,-27,2.72
O=C(c1cc(C2CC2)nc2ccccc12)N1CCC[C@H](Nc2ccc3c(c2)OCCO3)C1,6,-0.9
COC(=O)c1ccccc1NC(=O)CS(=O)(=O)c1nnnn1-c1cccc2ccccc12,-10,0.89
COc1ccc(CN2CCC[C@@](O)(c3ccccc3)CC2)nc1,-1,0.17

# Source: ChEMBL document CHEMBL4888484, “Replenishing the malaria drug discovery pipeline: Screening and hit evaluation of the MMV Hit Generation Library 1 (HGL1) against asexual blood stage Plasmodium falciparum ,using a nano luciferase reporter read-out” (2022)
